Data on two molecules can be found in paper PMC8882856, “The affinity and selectivity of α‐adrenoceptor antagonists, antidepressants and antipsychotics for the human α2A, α2B, and α2C‐adrenoceptors and comparison with human α1 and β‐adrenoceptors” (Pharmacology Research & Perspectives, 2022).

For one assay, the target named is human β1‐adrenoceptor (Homo sapiens, UniProt P08588). As to conditions: for Log KD β1: mean ± s.e.mean.
In assay [1] the target is T1, human α2C‐adrenoceptor (Homo sapiens, UniProt P18825).
T1 sequence (P18825 1-462): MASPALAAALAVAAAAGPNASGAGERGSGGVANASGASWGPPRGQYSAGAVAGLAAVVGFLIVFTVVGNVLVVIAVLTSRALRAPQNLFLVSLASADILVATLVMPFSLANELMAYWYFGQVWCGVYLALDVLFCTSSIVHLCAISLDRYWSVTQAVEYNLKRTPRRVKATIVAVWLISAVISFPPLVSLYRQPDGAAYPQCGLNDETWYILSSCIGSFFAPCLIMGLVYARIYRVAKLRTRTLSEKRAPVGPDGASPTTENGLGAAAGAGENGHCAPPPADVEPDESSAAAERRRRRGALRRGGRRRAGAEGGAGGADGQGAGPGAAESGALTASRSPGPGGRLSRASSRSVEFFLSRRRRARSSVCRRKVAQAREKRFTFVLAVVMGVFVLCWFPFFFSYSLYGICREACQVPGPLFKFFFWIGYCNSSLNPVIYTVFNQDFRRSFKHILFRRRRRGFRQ
The assay can be described thus: ^3H‐rauwolscine whole cell competition binding, CHO‐α2C cells. As to conditions: ratio of KD values.

In assay [2] the target is T2, human α2B‐adrenoceptor (Homo sapiens, UniProt P18089).
T2 sequence (P18089 1-450): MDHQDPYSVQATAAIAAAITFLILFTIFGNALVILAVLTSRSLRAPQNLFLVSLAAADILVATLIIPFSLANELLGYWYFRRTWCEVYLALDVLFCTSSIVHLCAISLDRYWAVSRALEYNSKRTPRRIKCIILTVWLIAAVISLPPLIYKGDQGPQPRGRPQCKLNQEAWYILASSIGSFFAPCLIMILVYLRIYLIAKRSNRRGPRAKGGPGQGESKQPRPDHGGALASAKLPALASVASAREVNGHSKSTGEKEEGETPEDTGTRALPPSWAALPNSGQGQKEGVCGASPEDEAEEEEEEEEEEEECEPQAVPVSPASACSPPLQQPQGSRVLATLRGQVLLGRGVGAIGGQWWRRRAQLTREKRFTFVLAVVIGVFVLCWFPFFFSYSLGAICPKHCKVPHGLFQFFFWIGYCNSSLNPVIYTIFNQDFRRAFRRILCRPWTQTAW
Briefly: ^3H‐rauwolscine whole cell competition binding, CHO‐α2B cells. Conditions: ratio of KD values.

Assay [3] addresses T1, human α2C‐adrenoceptor. The assay can be described thus: ^3H‐RX821002 whole cell competition binding, CHO‐α2C cells. Conditions: ^3H‐RX821002 as radioligand; living CHO cells; log values, mean ± s.e.mean.
The target in assay [4] is T3, human α2A‐adrenoceptor (Homo sapiens, UniProt P08913).
T3 sequence (P08913 1-465): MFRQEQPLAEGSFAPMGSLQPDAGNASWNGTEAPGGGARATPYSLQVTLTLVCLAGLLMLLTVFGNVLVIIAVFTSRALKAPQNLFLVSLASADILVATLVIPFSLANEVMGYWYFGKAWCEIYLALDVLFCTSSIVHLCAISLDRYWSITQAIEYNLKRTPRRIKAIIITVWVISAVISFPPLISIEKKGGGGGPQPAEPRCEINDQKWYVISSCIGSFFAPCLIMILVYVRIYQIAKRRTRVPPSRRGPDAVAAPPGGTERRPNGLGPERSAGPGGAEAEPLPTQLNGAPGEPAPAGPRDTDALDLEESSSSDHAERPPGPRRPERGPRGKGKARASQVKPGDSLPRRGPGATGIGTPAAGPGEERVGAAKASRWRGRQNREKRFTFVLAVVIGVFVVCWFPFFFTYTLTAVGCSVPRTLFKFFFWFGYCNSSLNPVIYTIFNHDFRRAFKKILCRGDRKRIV
The assay can be described thus: ^3H‐RX821002 whole cell competition binding, CHO‐α2A cells. Conditions: ^3H‐RX821002 as radioligand; living CHO cells; log values, mean ± s.e.mean; ^app = apparent KD from extrapolated curve.

Assay [5] addresses T2, human α2B‐adrenoceptor.
In assay [6] the target is T3, human α2A‐adrenoceptor. Briefly: ^3H‐rauwolscine whole cell competition binding, CHO‐α2A cells. Conditions: ratio of KD values.
For assay [7], the target named is T1, human α2C‐adrenoceptor.
The target in assay [8] is T2, human α2B‐adrenoceptor. The assay can be described thus: ^3H‐RX821002 whole cell competition binding, CHO‐α2B cells. As to conditions: ^3H‐RX821002 as radioligand; living CHO cells; log values, mean ± s.e.mean; ^app = apparent KD.
Assay [9] deals with T3, human α2A‐adrenoceptor.

Each structure is given as a SMILES string. Where two headings read alike, the source gives them in different places.

human β1‐adrenoceptor, sequence (P08588 whole entry): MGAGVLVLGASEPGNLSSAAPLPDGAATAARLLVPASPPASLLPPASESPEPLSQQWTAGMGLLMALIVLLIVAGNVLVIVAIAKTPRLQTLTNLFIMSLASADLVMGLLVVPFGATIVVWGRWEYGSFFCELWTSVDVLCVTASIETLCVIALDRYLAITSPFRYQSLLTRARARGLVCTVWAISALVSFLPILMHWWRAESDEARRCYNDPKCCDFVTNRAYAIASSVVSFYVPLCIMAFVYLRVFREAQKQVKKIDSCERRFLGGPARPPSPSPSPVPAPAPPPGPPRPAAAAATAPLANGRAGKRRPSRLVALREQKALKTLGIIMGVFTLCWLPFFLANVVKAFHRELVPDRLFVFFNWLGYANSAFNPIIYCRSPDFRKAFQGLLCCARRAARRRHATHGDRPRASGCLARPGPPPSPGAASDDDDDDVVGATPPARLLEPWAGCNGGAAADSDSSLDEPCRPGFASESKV

As for `COc1ccccc1N1CCN(CCN2C(=O)c3ccccc3C(C)(C)C2=O)CC1` [ARC239], the “IC50 (log) β1, IC50>top concentration used” value at human β1‐adrenoceptor (^3H‐CGP12177, log value) is on record as “IC50>−5”. Further, the “Selectivity ratio α2A vs α2C (higher affinity for α2C)” value on human α2C‐adrenoceptor [1] was determined as 18.2. Also, on human α2B‐adrenoceptor [2], the “Selectivity ratio α2A vs α2B (higher affinity for α2B)” value is 21.4 and the “Selectivity ratio α2B vs α2C (higher affinity for α2B)” value is on record as 1.2.

In the case of `CC1c2ccccc2CN1CC1=NCCN1` (stereo not drawn) [BRL44408], the “Log KD β1” value is given as “No binding to −3” at human β1‐adrenoceptor (^3H‐CGP12177 whole cell binding, log values, ^app = apparent KD, 'no binding to' = log top concentration) and “No binding to -3” on human β1‐adrenoceptor (given as log KD (negative values), 3H-CGP12177 whole cell binding, CHO cells). In addition, at human α2C‐adrenoceptor [3], the “Log KD α2C” value is listed as −6.32 ± 0.09. Moreover, the “Log KD α2A” value at human α2A‐adrenoceptor [4] was −7.24 ± 0.05. Besides, the values for the Kd on human α2B‐adrenoceptor [5], on human α2C‐adrenoceptor [7] and on human α2A‐adrenoceptor [9] were 3.89 µM, 0.603 µM and 0.0646 µM, respectively. In addition, at human α2A‐adrenoceptor [6], the “Selectivity ratio α2A vs α2B (higher affinity for α2A)” value turned out to be 60.3. Besides, on human α2A‐adrenoceptor [6], the “Selectivity ratio α2A vs α2C (higher affinity for α2A)” value was 9.3. Also, on human α2C‐adrenoceptor [1], the “Selectivity ratio α2B vs α2C (higher affinity for α2C)” value came to 6.5. The “Log KD α2B” value at human α2B‐adrenoceptor [8] was −5.59 ± 0.05.
